Results from the supplement of paper PMC11417369.
± gives the standard deviation of the averaged measurements. Some of the results follow.

System: PfAP2-I AP2 domain 3 (GST-tagged)
Assay: gcPBM binding intensity (ln(normalized median fluorescence intensity)); higher = stronger DNA binding
Procedure, shortened: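 Plasmodium falciparum DNA-binding domains carrying a GST tag were expressed in E. coli and applied for 1 h, at about 25 μg on average, to an Agilent 4 × 180k array. The array held primer-extended double-stranded 36-bp intergenic genomic probes together with negative controls, and binding took place in 1× PBS with 1% milk, 0.2 mg/ml BSA, 0.5% salmon testes DNA and 0.03% Triton X-100. An Alexa488 anti-GST antibody detected bound protein, and the array was scanned at 488 nm. Binding intensity is taken as the highest Masliner-normalised natural-log median intensity across replicate spots of either probe orientation.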

Sequence | gcPBM binding intensity (ln)
TACCTTATATTATATACACACATATAATATAATATA [CACACA_site1328] | 7.88 ± 0.46
TATTGGATCACACAAAAATGTATAAATAAATAGAAA [TGCATGCA_negctrl_site490] | 7.7 ± 0.61
ATTCAATAAACGTATTGTACAAAAGAACGATATATT [XGTACX_site2533] | 7.88 ± 0.64
TGAGAATAAAAAAAAGGGATTATTAGATTTCTCCTT [TGCATGCA_negctrl_site326] | 7.13 ± 0.97
ATCATAACTTGATACGCACACGTTATATAAATAAAA [CACACA_site4955] | 8.13 ± 0.25
AAAAAAATAAGGTGCACACAAAAAAAAAAAAAAAAA [CACACA_site812] | 10.9 ± 0.71
AAGACAAATTGTGACACACACAAAAAAAAAAAAAAA [CACACA_site3727] | 7.94 ± 0.57
ACATATGGCACATATGTACACACGTATAGATAATAT [CACACA_site2024] | 9.05 ± 0.22
CTAAAAAAATAATAAAGTACACAAACGAATATATAA [XGTACX_site668] | 8.03 ± 0.41
TTGAAAAATCAGCACACACACAAATACATACATATT [CACACA_site7505] | 8.03 ± 0.48
TTTTTTTTTTTTTTTGCACACTATATTTAATATAAG [CACACA_site2444] | 9.42 ± 0.21
CTTTTTTGGTACATCACACATTTTTACATTCCCTTT [CACACA_site4957] | 8.19 ± 0.61
TTAATAGTGGAAATATGTACATAATTTTGGTCTTTT [XGTACX_site1664] | 8.07 ± 0.54
CTGTTCAAAATATGAACACACACATATATATATATA [CACACA_site8638] | 9.34 ± 0.3
CCATATTTAATAAAATGTACTCATTCTTTTATTTTA [XGTACX_site7802] | 7.67 ± 0.67
CACATAAAAAAATAAACACACATATGTATATAAATA [CACACA_site7483] | 7.71 ± 0.57
CTTTAAATGATGTAAACACACACATATACATTATTA [CACACA_site9035] | 7.7 ± 0.42
TAAAAAAAAATAAAAAGTACATATATATATATATAT [XGTACX_site1155] | 9.26 ± 0.27
AATGGAAAAATAGGCACACACACATAAATACAGATA [CACACA_site4844] | 8.01 ± 0.5
AGTGCTACTCATGATTGAATAGAGGAAAAGGCGGTG [GTGCAC_negctrl_site49] | 8 ± 0.53
AATATGAAACAAGACGCACACATAAATAAATAAATA [CACACA_site326] | 8.29 ± 0.6
ACAAAATATTTTTCTTCACACATCCATTCAACATTT [CACACA_site5886] | 8.06 ± 0.62
ACAAAAAAAAAAAAAATACACACACATAAAAAAAAA [TGCATGCA_negctrl_site333] | 7.87 ± 0.76

Sequence | gcPBM binding intensity (ln)
TATATATATATATATATTAATAATTAATATAAAAGA [XGTACX_negctrl_site32] | 9.29 ± 0.31
AATCAAAACATTAAAAAGAAAAAATATATATATATA [CACACA_negctrl_site366] | 9.41 ± 0.38
TATAAATGATTAATTTGTACATATTTTACTTAATTG [XGTACX_site5271] | 7.26 ± 0.42
CCATTCAAATTTCGCACACACATACAAAAAAAAAAA [CACACA_site3093] | 8.49 ± 0.35
TAAATAAATAAATATATATATATATATATATATATA [XGTACX_negctrl_site70] | 9.5 ± 0.96
TTGATGATATCATTTTGTACTTATACGTATTTAAAA [XGTACX_site148] | 7.75 ± 0.35
GATTCCTTTAACCCTGCACACATACATACATTTATA [CACACA_site9308] | 8.75 ± 0.98
TATATTTCTTATTACATACACACATATACATATATG [CACACA_site3202] | 7.88 ± 0.47
TAATAATATAATAATACACACTCATTATATATATAA [CACACA_site6045] | 7.66 ± 0.4
ATAGATGCATATTATACACACATATGTAAATACATT [CACACA_site4691] | 7.84 ± 0.67
CCACTATATAAAATCACACATTTATATTATACATAT [CACACA_site4570] | 7.72 ± 0.65
ATAATAGTTAAATGTACACACTAACTACATGGAATA [CACACA_site5753] | 7.92 ± 0.4
TTGAAGTTAATAAAAACTTTATACATGAAATTATTT [CACACA_negctrl_site684] | 7.26 ± 0.53
AAAAAAAGAAATTAGGTGCATAGCATTAACCGATAA [GTGCAC_site9582] | 9.415 ± 0.078
TTTATTTTAATTTATTGTACATTGTTATCAAGTGCA [XGTACX_site1110] | 7.67 ± 0.59
TATTGGTAATGTAAATGTACATATAGATATTTACAT [XGTACX_site1922] | 7.53 ± 0.53
TTATATGTTTTGTGTACACAATTTATTAAATTAATA [CACACA_site5645] | 8.38 ± 0.16
ATAGGAAAAAGTATTGGTACACATACATATACGTTA [XGTACX_site5819] | 7.55 ± 0.49
TATATATTTTTTTCATGTACATATAAATTAATTAAA [XGTACX_site8680] | 7.96 ± 0.4
ACACAAAAAATTAAGTGTACTCATCAAGAAAAAAAA [XGTACX_site3456] | 7.78 ± 0.52
GATTTAATAGATACGAGTACAGAAATTGTATACATA [XGTACX_site7563] | 8.01 ± 0.26
TACATATTTTTCTTTTCACACATGGAAAAAAAAGGT [CACACA_site5146] | 10.1 ± 0.54
TATTTTTTTTTTCACTGTACATACAACAACAAATAT [XGTACX_site8835] | 8.1 ± 0.4

Sequence | gcPBM binding intensity (ln)
CCCTTAATTTAAAACACACAAACAAATAAGTTAGTT [CACACA_site3793] | 7.68 ± 0.33
AATATATTTATTATAACACACACATATATATATTAT [CACACA_site8264] | 7.89 ± 0.66
ATATATATATATATATATATATATATATATAAGTGG [XGTACX_negctrl_site90] | 9.22 ± 0.54
TATTAATTCATTTTTTTTTTTTTTTTTTTTTTTTTT [CACACA_negctrl_site1215] | 9.61 ± 0.14
TTCATATTTCATATATGTACTTATGTTCAATATAGT [XGTACX_site3811] | 7.7 ± 0.2
TTTTTTATGTTCAATTGTACATATACATATATATAT [XGTACX_site6013] | 8.95 ± 0.092
TAATTACACTTTAAAAGTACATATATAATAACATTA [XGTACX_site379] | 8.05 ± 0.099
AAAATAAGCCATATACGTACATACATATATAAATAT [XGTACX_site4197] | 7.87 ± 0.32
CAAACAATTAAACAAACACACATATACATGTATATA [CACACA_site2060] | 7.4 ± 0.42
TATATAATATTACGTTGTACACTTTAATCTCCCTTC [XGTACX_site5577] | 8.1 ± 0.49
ACTAATATGCAATATTGTACATATATATAGAAATAT [XGTACX_site5273] | 8.04 ± 0.49
ACCATTTGAAAATTCACACACTTTATTTTGTTATAT [CACACA_site5976] | 8.11 ± 0.51
AATATATCGCATAGTTGTACAGAATTTTTACTTTTA [XGTACX_site8192] | 7.83 ± 0.54
ATTGAAAAATAAAAATGTACACATGTAGCATACCAT [XGTACX_site3275] | 8.01 ± 0.61
TATAATCAATGCCAAAGTACATATTAATATATTTAT [XGTACX_site4558] | 7.51 ± 0.52
CACTTTAATTTATGCACACATATGGAACAACAGCCA [CACACA_site994] | 10.2 ± 0.38
TAAGTTTGTCAATCAACACACACCTATTTATTATAT [CACACA_site3919] | 7.57 ± 0.57
CTTAAAATGATAATATGTACACATAAATAATATATA [XGTACX_site8330] | 7.72 ± 0.32
TTTTTTGACATTCCTTTTAATAATTAACGAAAGGCA [GTGCAC_negctrl_site377] | 7.67 ± 0.55
AAATACAAGGGACATGCATACCACTATTTTTTAAAT [TGCATGCA_site588] | 8.38 ± 0.46
TTTATATAATAGTTATGTACTTAAACGAAAGATACA [XGTACX_site8495] | 8.01 ± 0.028
AAAGATATTTTTATCTCACACATATAATATATATAT [CACACA_site5478] | 8.65 ± 0.11
GCATATGTATATAATGTGCACATGGATTATATAAAA | 9.57 ± 0.4

Sequence | gcPBM binding intensity (ln)
TATTTACAGACATGCGCACACATAAATAAATAATAG [CACACA_site2411] | 8.48 ± 0.66
GTTACTGCATACATAACACACATATTCAAAACACAT [CACACA_site3502] | 8.49 ± 0.49
TATAGAAAATTTATATGTACATATATATATATATAT [XGTACX_site4451] | 9.53 ± 0.76
TAAAATTTAAGTTATACACACTTAAGTAACATCATC [CACACA_site6395] | 7.77 ± 0.57
GAACTAATAATGAAAAGTACACATACACATATATAT [XGTACX_site6789] | 8 ± 0.67
AAATGTATACACATGGTGCGTAATATATTATATATA [GTGCAC_site9877] | 10.4 ± 0.4
CTACCAAATCTATAGACACACATATATATATATATT [CACACA_site2486] | 7.68 ± 0.36
TTCATTCAAATCCAAGCATGCTTTATTAAAAAATTA [TGCATGCA_site567] | 7.71 ± 0.32
ATATATAATTCCCAAGTGCATTTATTTTAATTATTA | 10.2 ± 0.12
AATAAATTTCAAAATTGTACTCATTTCCTTTCCCAA [XGTACX_site5887] | 7.69 ± 0.49
TACGCCTATAACGGCTGTACACCTTACTTTTTTTAA [XGTACX_site6818] | 7.71 ± 0.73
TATGATTTTTATATATGTACGTATGGTGTTTTACAA [XGTACX_site6100] | 8.11 ± 0.19
TGTGAAATAAAATTTGTACACACATATATATATATA [CACACA_site8093] | 9.45 ± 0.3
TTCTTCTGTTTTATTACACACCATTTTGTGTCTACA [CACACA_site8643] | 8.47 ± 0.6
CTCTATATATTATTATGTACTAAATGTATGTATGTA [XGTACX_site7151] | 8.25 ± 0.27
AAAACACAATTTATTACACACATATATTATATATTA [CACACA_site1420] | 7.75 ± 0.52
ATGAATGAATAAAGAAGTACGGAAATATTAACAAAA [XGTACX_site4695] | 8.22 ± 0.74
TAACACACTAAGAAAAGTACTGATTAATATAATTTT [XGTACX_site5536] | 7.55 ± 0.59
ATAACATACATAACAACACACAATATTTATCTGTAT [CACACA_site4279] | 7.99 ± 0.44
ATTCCTGGACCGTTCATGCACTTGCAGAACGTCCAT | 8.96 ± 0.47
